Data: the supplement of paper PMC10441789
The list shows a part of the results. Antibody binding of pooled human sera (four to six donors per pool; dilution not stated) to peptides of the Trypanosoma cruzi antigen TSSA on microarrays. Quantile-normalised fluorescence in arbitrary units, mean of duplicate arrays; higher = more binding. No active / inactive call. The uninfected pools are read here as the healthy donors of the same country. The strongest signals lie near the top of the scale (about 60,000).

Legend:
Assay in all cases: antibody binding signal (normalised fluorescence) (arbitrary fluorescence units); higher = stronger serum antibody binding to peptide
[1] = test system: pooled sera of chronic Chagas disease patients, Bolivia
Description: (§1)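 Microarray of 15-residue peptides over residues 30-55 of Trypanosoma cruzi TSSAII, each with 1 to 10 substitutions at naturally variable positions, probed with one serum pool per country.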

[2] = test system: pooled sera of chronic Chagas disease patients, Brazil
Description: as §1

[3] = test system: pooled sera of chronic Chagas disease patients, Colombia
Description: as §1

[4] = test system: pooled sera of chronic Chagas disease patients, Mexico
Description: as §1

[5] = test system: pooled sera of chronic Chagas disease patients, USA
Description: as §1

[6] = test system: pooled sera of uninfected people, Argentina
Description: as §1

[7] = test system: pooled sera of uninfected people, Bolivia
Description: as §1

[8] = test system: pooled sera of uninfected people, Brazil
Description: as §1

[9] = test system: pooled sera of uninfected people, Colombia
Description: as §1

[10] = test system: pooled sera of uninfected people, Mexico
Description: as §1

[11] = test system: pooled sera of uninfected people, USA
Description: as §1

Sequence | antibody binding signal [1] | antibody binding signal [2] | antibody binding signal [3] | antibody binding signal [4] | antibody binding signal [5] | antibody binding signal [6] | antibody binding signal [7] | antibody binding signal [8] | antibody binding signal [9] | antibody binding signal [10] | antibody binding signal [11]
KKAATGEAPSPPGAS | 21500 | 21600 | 202 | 133 | 15500 | 441 | 340 | 107 | 303 | 85.8 | 414
GTENKPAAGEAPSPS | 5030 | 25900 | 568 | 1630 | 14300 | 326 | 1440 | 243 | 121 | 125 | 124
GKDNKPATGGTPSQP | 280 | 10400 | 855 | 988 | 928 | 272 | 702 | 173 | 197 | 267 | 96.8
SGTEKKAATGGTPSP | 594 | 1660 | 1270 | 1610 | 2130 | 309 | 543 | 994 | 1720 | 163 | 201
GKEKKTATGETPSQP | 560 | 21100 | 3880 | 6660 | 7560 | 206 | 110 | 126 | 85.6 | 128 | 102
DNKAATGGAPSPSGA | 546 | 1280 | 691 | 540 | 1830 | 372 | 204 | 438 | 236 | 326 | 144
PPSGTEKKTATGGAP | 1160 | 15700 | 960 | 2390 | 3530 | 1650 | 545 | 154 | 337 | 207 | 417
TEKKAATGGAPSQSG | 379 | 1060 | 1530 | 2360 | 2930 | 406 | 804 | 138 | 1090 | 366 | 483
TPPSGKDKKAATGEA | 347 | 1040 | 289 | 41800 | 1160 | 246 | 421 | 111 | 301 | 111 | 100
KDNKPATGETPSPSG | 28500 | 33600 | 286 | 198 | 25300 | 404 | 669 | 314 | 293 | 1870 | 2660
DNKTAAGETPSPSGA | 283 | 609 | 350 | 348 | 1270 | 159 | 281 | 225 | 174 | 270 | 514
SGKDKKPAAGGAPSP | 255 | 457 | 3150 | 1420 | 1450 | 140 | 104 | 98.9 | 632 | 77.4 | 99.7
KENKTATGETPSQPG | 1400 | 34100 | 783 | 249 | 8070 | 159 | 343 | 233 | 240 | 245 | 244
NKTAAGETPSPSGAS | 780 | 2730 | 375 | 966 | 1580 | 484 | 905 | 617 | 326 | 265 | 1330
SGKDNKPATGEAPSP | 46700 | 51200 | 450 | 343 | 40000 | 1260 | 948 | 286 | 313 | 372 | 136
TPPSGTDKKTAAGET | 11700 | 26700 | 1970 | 37600 | 1450 | 228 | 239 | 315 | 1490 | 628 | 155
TPPSGKDNKAAAGET | 1720 | 1660 | 218 | 18800 | 4510 | 367 | 717 | 260 | 322 | 184 | 112
SGTEKKAATGEAPSP | 36500 | 36100 | 273 | 413 | 25700 | 533 | 324 | 384 | 664 | 143 | 172

Sequence | antibody binding signal [1] | antibody binding signal [2] | antibody binding signal [3] | antibody binding signal [4] | antibody binding signal [5] | antibody binding signal [6] | antibody binding signal [7] | antibody binding signal [8] | antibody binding signal [9] | antibody binding signal [10] | antibody binding signal [11]
KENKAAAGGTPSQSG | 199 | 223 | 947 | 167 | 806 | 140 | 90.3 | 360 | 129 | 108 | 144
PSGTENKAAAGEAPS | 28400 | 43300 | 2490 | 2560 | 17200 | 1170 | 558 | 263 | 369 | 332 | 343
TPPSGTDNKAAAGGT | 42300 | 51400 | 2850 | 16600 | 8120 | 690 | 616 | 2980 | 231 | 365 | 212
PPSGKEKKPATGGTP | 373 | 1590 | 1380 | 5150 | 3490 | 433 | 753 | 188 | 280 | 102 | 217
SGTEKKTATGGAPSQ | 226 | 2920 | 2700 | 1860 | 1810 | 346 | 565 | 121 | 119 | 352 | 150
GTENKPATGETPSQS | 36500 | 38500 | 1900 | 2920 | 29600 | 478 | 1130 | 448 | 185 | 1920 | 152
GKENKTAAGEAPSPS | 509 | 10600 | 7860 | 6100 | 17900 | 536 | 138 | 142 | 153 | 151 | 251
PPSGKDKKTATGGTP | 350 | 473 | 1210 | 27900 | 1920 | 204 | 286 | 115 | 202 | 105 | 99.4
GTEKKPATGGTPSPP | 730 | 656 | 2460 | 1480 | 1110 | 280 | 1310 | 1410 | 212 | 322 | 1170
TEKKPAAGGTPSPSG | 162 | 479 | 7230 | 564 | 1890 | 140 | 295 | 2380 | 252 | 483 | 1590
TPPSGTDKKPAAGEA | 35900 | 45200 | 10800 | 38700 | 6230 | 874 | 347 | 529 | 441 | 4860 | 374
TDNKTAAGETPSPPG | 254 | 964 | 258 | 328 | 959 | 145 | 371 | 220 | 131 | 140 | 1130
GKDKKAAAGEAPSPP | 222 | 751 | 727 | 761 | 7210 | 131 | 71.2 | 80 | 104 | 71.5 | 90.9
KDNKTATGETPSPSG | 318 | 1310 | 2190 | 240 | 6910 | 545 | 278 | 207 | 279 | 251 | 2730
SGTDKKTATGGAPSP | 331 | 1900 | 6900 | 1330 | 1540 | 399 | 207 | 118 | 164 | 424 | 195
SGKENKAAAGEAPSP | 3650 | 25400 | 6570 | 5010 | 19200 | 9050 | 3620 | 103 | 456 | 409 | 168
STPPSGKENKTATGG | 8250 | 13800 | 762 | 6760 | 3700 | 2390 | 1230 | 177 | 740 | 279 | 387
